Measurements as given in the BET-seq Pho4 binding data (Le et al. 2018).
The other results are listed elsewhere or left out. These are noisy estimates, calculated here from bound and input reads.

target: T1, Pho4 (S. cerevisiae) (UniProt P07270); experiment: relative binding free energy (BET-seq); higher = weaker binding; conditions: reference: library average
T1 sequence: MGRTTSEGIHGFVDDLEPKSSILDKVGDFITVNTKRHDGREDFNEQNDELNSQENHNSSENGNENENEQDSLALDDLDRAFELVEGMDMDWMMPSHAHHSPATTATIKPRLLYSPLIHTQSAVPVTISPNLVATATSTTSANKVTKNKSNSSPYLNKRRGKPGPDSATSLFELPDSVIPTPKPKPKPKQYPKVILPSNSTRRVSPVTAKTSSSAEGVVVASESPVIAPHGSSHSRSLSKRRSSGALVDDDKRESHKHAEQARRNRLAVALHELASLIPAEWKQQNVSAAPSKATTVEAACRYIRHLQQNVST

Sequence | relative binding free energy [kcal/mol]
GCGTTCACGTGCTTGG | 0.22
GTGTGCACGTGTTTTC | -0.1
TAAGTCACGTGTGTGC | 0.11
GTTTTCACGTGGTTGG | 0.27
TGTAGCACGTGGAACG | 0.11
GAGATCACGTGGGAGA | 0.13
CTTATCACGTGGATTG | -0.01
GGCGGCACGTGGCGAG | -0.19
CCGGGCACGTGTGTGC | 0.02
AGTCTCACGTGCGGGG | 0.16
CGAGCCACGTGGGGTT | -0.17
TGGGACACGTGAATGG | 0.26
AGATTCACGTGACGGG | 0.35
CTTGTCACGTGTACGG | 0.06
TTGAACACGTGTTGTG | 0
AGTGGCACGTGGTTAT | -0.16
CAGGACACGTGTGGTG | -0.05
TTAATCACGTGTGTTG | 0.18
TTAGTCACGTGATGTG | 0.16
TGGCACACGTGGACGG | 0.17
TAGTTCACGTGGGGAA | 0.23
CGAAGCACGTGTGTTA | 0.02
CGGTGCACGTGCTGCG | 0

Sequence | relative binding free energy [kcal/mol]
GCATTCACGTGTGAGG | 0.22
AGGGTCACGTGAGTGC | 0.15
CGTCGCACGTGTGTAG | -0.16
CTTGTCACGTGGGGTC | -0.03
TTGAGCACGTGTAATA | 0.02
TAGGTCACGTGCGATG | 0.06
ATGGTCACGTGGTATG | 0.02
TGAGTCACGTGTTAGG | 0.05
TTCAGCACGTGTGTAT | 0.06
ATTCGCACGTGTAGGG | -0.13
GGATCCACGTGGGGGT | -0.08
CCGGGCACGTGTGGCG | -0.03
GGTGGCACGTGAGTAG | 0.26
AGGGGCACGTGAGCGT | -0.02
ATAGGCACGTGTGGTT | -0.08
GATTGCACGTGAGAGT | 0.21
TGCTGCACGTGGGCAG | -0.24
TATATCACGTGATTTG | 0.2
TTTATCACGTGAGTGG | 0.34
ATAGTCACGTGGCTGG | 0.03
ATTGACACGTGTCTGG | 0.03
GAGGTCACGTGTCGAG | 0.3
TTATGCACGTGGGCGT | -0.19

Sequence | relative binding free energy [kcal/mol]
ATGGCCACGTGGGAGT | -0.16
TGGGCCACGTGGGGTC | -0.12
TATGGCACGTGGAGTT | -0.07
ATATTCACGTGTATTG | 0.2
AGGTACACGTGGCGTA | 0.03
GTATCCACGTGTGGCG | 0.18
GTGTGCACGTGGGTCA | -0.2
ATGGACACGTGGTTGA | 0.14
TCAGGCACGTGGTATG | -0.21
GAAAACACGTGGAGGT | 0.05
TTGGGCACGTGAACGG | 0.04
GAGGGCACGTGATCTG | 0.11
TAGGACACGTGCGGGC | 0.08
AATAGCACGTGCGGGT | -0.12
TTGTCCACGTGAGTGG | 0.32
TTTGTCACGTGATCAA | 0.09
TGCCACACGTGTGTTG | 0.12
TGTGCCACGTGGTAGA | -0.09
AGATGCACGTGCATGT | -0.04
TTATTCACGTGGATAA | 0.15
AATGGCACGTGTCGAT | -0.07
TGTGACACGTGTTGAT | 0.05
GCGGACACGTGGAGTT | 0.1

Sequence | relative binding free energy [kcal/mol]
CTGGTCACGTGTGGGC | 0.19
TGTATCACGTGGATTG | 0.07
GCTAGCACGTGTAGGA | 0.17
CAGGGCACGTGGGGCA | -0.31
GTTTCCACGTGAGGAT | 0.3
GTGTGCACGTGGAGAT | 0.02
TAGTGCACGTGTCGTT | -0.03
CGGGGCACGTGGAAGG | -0.06
TAGATCACGTGAATTG | 0.4
TTATGCACGTGCGCTA | -0.05
CTGTTCACGTGAGAGG | 0.41
CTTAGCACGTGTTTTT | -0.11
GTTTCCACGTGGAAGG | 0.25
TTATCCACGTGTATTT | 0.09
TTCGACACGTGAGTTT | 0.22
CGGGTCACGTGTATAG | 0.04
TGGGGCACGTGCTCGA | -0.28
TATGTCACGTGGACTA | 0.08
AACTGCACGTGGTTGT | -0.08
ATGGACACGTGTATAG | 0.11
GGGTTCACGTGAGTGA | 0.4
TCAAGCACGTGGAGTG | -0.03
TTTTCCACGTGGGCTA | 0.01

Sequence | relative binding free energy [kcal/mol]
CGTAGCACGTGTGGTA | -0.07
GAAATCACGTGGGTAT | 0.11
GGAAGCACGTGGATCG | 0.11
CTTGTCACGTGAGATT | 0.24
GCAGGCACGTGGGGTT | -0.25
GTTCTCACGTGTTTTG | 0.24
TGGTGCACGTGAAAAA | 0.29
AGCGGCACGTGGTGTC | -0.09
TGTATCACGTGCGTAA | 0.15
TCGTGCACGTGAGGTG | 0.13
GGGTGCACGTGCTGCG | -0.03
TTATTCACGTGAAAGG | 0.53
GGTGTCACGTGGTGTA | 0.03
GACGGCACGTGTAGGT | 0.02
ATAGGCACGTGCATTG | -0.19
GGGAACACGTGTTTAG | 0.13
TGGGTCACGTGCAAAG | 0.11
TTGAGCACGTGAAGAG | 0.27
AAATTCACGTGCGTTT | 0.17
ATGAGCACGTGCAGTG | -0.15
TCAATCACGTGATGGG | 0.23
TACCGCACGTGGGGGT | -0.21
GGGGTCACGTGGTCTG | 0.1
